B1: LINE1-full (parent)
chain: UACGUAGGUGGUUUUCCCCUGAUAGUGCUAAGGGGGCCUGGAAGUUUGGACUGGGCAGAGCUCAACACAGCGUGGCAAAGUGGCUGUGGCUAGACUGCCUCUCUGGAUUCCUCGUCACUCAGCAGGGCAUCUCUGAGAGAAAUGCC

Read counts are not given, so values of variants with three or more changes are uncertain.

The results in this text go back to the RNAGym collection of RNA variant scans (doi:10.7554/elife.90254).

The data set covers variants of B1. The data set can be described thus: self-cleavage, relative activity (ratio to wild type); higher = more cleavage; in vitro, sequencing; the parent is a self-cleaving ribozyme.
As for A64C U104A U108C, the self-cleavage amounted to 0.19. The same measure for C28A A107G U109C: 0.61. As to U26C C76U U96C U132C, the self-cleavage turned out to be 0.16.

Take U45C A65G U132C: the self-cleavage stood at 0.

Turning to A67G G93C U109A U115C, the self-cleavage came out at 0.

On to G7A U23G U46A U73C, for which the self-cleavage stood at 1.46. The figure for U12C U46C U47A U119A A121G is 1.65. With U26C U62C C118A U130C, the self-cleavage is 0. The figure for U26C U119A A140G is 1.17; for G4A A67G A142G it is 0.28. The same measure for U91C U96C C99A: 0. The same measure for G114A U130C U132A: 1.3; for A6G A78G C113A U119A: 0.44; for G40A U52A A67G: 0.45. As for U14C A77C C123U U134C, the self-cleavage was found to be 1.24. Regarding U13C U20C U73C U81A, the self-cleavage was 1.5. For the variant C3U A64U A121G, the self-cleavage turned out to be 0.27. As to U62C A77G A136G, the self-cleavage came to 0. U13C U39C G70A A124G A136G: the self-cleavage came to 0. Regarding U13C U26A C76U, the self-cleavage came out at 1.92. The figure for U14C U20C G127A A138U is 0.73; for G54A G126U A129G it is 1.22. The same measure for U29A U119A G125U: 1.82. As for A22G U102C G105A A142G, the self-cleavage was 1.25.

In the case of U26C G72A A141G, the self-cleavage came to 1.59. Take U29C U108A C120A: the self-cleavage is 1.23. The figure for A57U A79G U119C is 0.1; for U15C C38U A50G A59G A107G U134A it is 0; for A78G U81C C110U G127A it is 1.69. As for U9A U20A A78G U100C A138G, the self-cleavage is 1.84. With A24U A42G C61U U100C U132C U143G, the self-cleavage came to 0.08. For A107U U119A A121U, the self-cleavage was found to be 1.08. The figure for A43G A78U G105A U112C C146A is 2.52. The figure for G10A A31G U143A is 1.31.

With U13C U23C C111A, the self-cleavage was determined as 1.57. The same measure for C51A A65G U104C U115A G135U U143C: 0.05; for A31G U112C U119A A129U: 0.9.

As to G4A G11A A65G C68U, the self-cleavage was 0.08.

In the case of U47A G72C A117U, the self-cleavage is 0.98. The figure for G40A U104C A121G is 1.53; for U29A A67G A107G it is 0. As to U13C U20G A78G, the self-cleavage was 1.23. The figure for G8A U102C U119C A121U is 1.44; for G8A U52C A140G it is 0.62; for G7U A64U A94G it is 0.33. The figure for G34A U52C G58U U100C C116U is 0.03. The figure for A43G U104A A124U G125A A141U is 0.49; for U12C U62C A129U it is 0.13; for U15A C71A A79G G97U it is 0.07. Take U15C U46A G54A U73G: the self-cleavage amounted to 0.28. As to A79G U130C A142G, the self-cleavage was determined as 1.08.

With C28A U73C A77U G83A U85C G125A, the self-cleavage was found to be 0.06. The figure for U12G A22G U46C A138G is 1.7; for U9C A67G C133U it is 0.37. Take G33U U100C U104A: the self-cleavage came to 1.43. Take A31G A69G A117G: the self-cleavage was determined as 1.31. The figure for G82A A141G A142G is 1.31. The same measure for U14C A69G U87C: 0.34; for U45C C113U A124G: 1.35. Regarding A6U U12G A136G A141U, the self-cleavage stood at 0.91. Turning to U39A U52C U62C, the self-cleavage is 0.

For A30C U87A U102C A142G, the self-cleavage worked out at 0.05. The figure for U15C C18U U96A U119C is 0.15; for U1A C90U G135A it is 0.17; for U73A C99G A138G it is 0.77.

With A69G A79U U143C, the self-cleavage is 0.58. With U29C A31G A50U A77U, the self-cleavage is 0.84. On to U13C A64G A124G, for which the self-cleavage was 0.

C90U U104C U119A: the self-cleavage is 0.02. The figure for U20A G35A C68A U109C A124C is 0.02; for U26A U52A U96A U132C it is 0.06.

As for U5C A6U A65G, the self-cleavage was determined as 0. The same measure for A64U A65G U104G U143C: 0; for U1A U15G U26A U52A G54U: 0.65. The same measure for A42C G49U U109C A138G A140G: 0.62. On to U62C G89A U96A, for which the self-cleavage was determined as 0. For the variant A6G U15A U104C, the self-cleavage was 1.46. With U13C U46C U102C, the self-cleavage worked out at 0.45. On to U81A A107G U130C, for which the self-cleavage amounted to 2.51. For U5A A31U U119C, the self-cleavage is 0.8. Turning to A2G A78G A94U A138U, the self-cleavage came out at 0.47. Turning to A24U A43G U81G, the self-cleavage worked out at 1.59. The figure for U13C A31U A69G U102A A121G is 0.42; for U47C U52A A67G U134C it is 0.42.

Regarding G7A G54A A124G U143A, the self-cleavage turned out to be 0.28. The same measure for C95U U115C C131U U134G: 0.35; for U46C U52A G97A: 0.53.

For G34A C99U U132C, the self-cleavage was determined as 0.38. The same measure for U52C A65U A77G A138G: 0; for U13C C63A A79U U109C: 0.11; for U14C G53A G60A A64G U91C: 0. The figure for U104C A136G A141G is 1.89. As to U12G U13C U81A, the self-cleavage was 1.32. The same measure for A57G U91A A92G U96A: 0; for G8C A59G C146U: 0.14; for U15A U47A U119A U134C: 1.05. The figure for A24U G80A U108C is 2.

For the variant G35A G105C U115A, the self-cleavage was found to be 1.33. As to U13C U15A U29C A57G, the self-cleavage turned out to be 0.17. The figure for U5A A69G G83A is 0.15. The same measure for U46A U52C A138G: 1.62; for U13A A77G A129C: 1.76. The same measure for U87A C98U U130C A136G: 0.02. As for G4A A50G G53A A65G U81A U100C, the self-cleavage was determined as 0. Consider A30G U45C U109C, for which the self-cleavage worked out at 2.04. The same measure for A67U U96A A107U U143C: 0.03; for U104C A107G A141G: 1.17. The figure for G74A U87A U104C is 0.05; for C28A A42G C90U U119C it is 0.07; for G33A U52A C71U A77C U85A it is 0.02. Turning to U13A U100C A117G, the self-cleavage came to 0. The same measure for G7A U81C C146U: 0.74; for G33A A77U A107U: 0.62. With U12C C76U A77G A78G U109C, the self-cleavage is 2.15. The same measure for G54A G82A U102C A117G: 0.31; for A42G A57G G70U U102C: 0.05; for C38U A43G U91C A94U: 0.5.

With U1C U13C U73C, the self-cleavage was 0.

U15C U45C A57U U85A: the self-cleavage was found to be 0.04.

As to U5C A117C A121G, the self-cleavage was 2.47. The figure for U1G G36C G114A is 1.08; for A59C A107U A136U it is 1.39. Take U15C G53A G60A A94G: the self-cleavage is 0.02. The figure for C37U A43G G114U U115C is 1.2. For the variant A22G C61U U134C, the self-cleavage amounted to 0.14. Take G33U A57G C101U A117U A124G: the self-cleavage is 0.74.

With U1C U20C A43G, the self-cleavage turned out to be 0.73. As for U14C A124U A136G, the self-cleavage came to 0.41. The figure for U14A U20A A65G U130A U134A is 0.07; for U5C U12C U15A U102C U115A U130C it is 2.3; for U12A A64C U85C U100C U112C it is 0. The figure for U46C U52C U115A U119A is 1.08; for U26G A42U C66U it is 0.13; for G36A A69G A121U it is 0. As to G34U A50G G88U A117G, the self-cleavage came out at 0.05. The figure for C68U C98U A140G is 0.04; for G33U G60C U81A A141G it is 0.02. The same measure for A65C U85A U130C A140G: 0.21; for A2G A64G U102C: 0. The same measure for U12C A43G G53A U132A A136G: 0.84; for A65G U96C G105A: 0.09; for U115G A138G U143C: 2.33. As to A59G G93U U109C, the self-cleavage stood at 0.37.

In the case of A67G C128U U132A, the self-cleavage came out at 0.47. The figure for C63A A64G A65G U91A is 0.03. The figure for A50G U81A U100A is 0.78; for A2G G36A G80C it is 0.89; for U46G A65G U104G it is 0. The figure for A2G A92G U115A is 0.77. Turning to U13C A30G U109C A121U U132C, the self-cleavage was 0.77.

Regarding A2G C37G A65U U108C A117U U134A, the self-cleavage came out at 0.47. The figure for U45A A77G C113G is 1.93; for U5C G8U U9A U130C it is 1.01; for U15C A65G A92U A142G it is 0.08. A43G U45C C113A: the self-cleavage worked out at 1.07. For the variant C18A G72A U100C, the self-cleavage amounted to 1.9.

As to U85C A94G U115A U134C, the self-cleavage was found to be 0. The same measure for U47C A140G C145U: 1.31. Regarding A50U A107G A136U C146A, the self-cleavage stood at 0.79. Take A42G A94G A142G: the self-cleavage stood at 0.35.

For the variant U39A A50G A117C, the self-cleavage is 1.19. The same measure for U9C U12C A43G U52G: 0.84. The figure for A79G A94U A136U is 0.37; for U46C G49A A67G G72C U109C it is 0.09.

U15A A24G U73C U109C U130C: the self-cleavage was determined as 0. The same measure for G32A U81A U85C A92G: 1.02; for G35A U73A A77C U102C: 1.01.
